From ChEMBL document CHEMBL4888484, “Replenishing the malaria drug discovery pipeline: Screening and hit evaluation of the MMV Hit Generation Library 1 (HGL1) against asexual blood stage Plasmodium falciparum ,using a nano luciferase reporter read-out” (2022)
The campaign covered roughly 150,000 compounds. About 540 (0.36%) showed an effect of 50% or more. Some of the results follow.

Each compound was assayed on Plasmodium falciparum (assay: Primary screen in NF54 nanoGlo assay, in single point, at 2uM, 72h; a lower Z score goes with more inhibition). Details: timepoint 72 hour.
Format: functional, Erythrocyte
Cc1noc(C)c1NC(=O)c1cccnc1 was tested, and the “% Inhibition” value was -7% and the Z score was 1.27.
With COc1ccc(C)cc1NC(=O)Cc1csc(NC(=O)[C@@H]2CCC(=O)N2)n1 the “% Inhibition” value was -4% and the Z score was 0.75.
With O=C(COc1ccc2ccccc2c1)N(Cc1nnc(-c2ccc(Cl)cc2)o1)C1CCCC1 the “% Inhibition” value was 5% and the Z score was -0.5.
COc1ccc2cc1Oc1cccc(c1)CO[C@H]1CCN(C(=O)c3nn(C)c(C)c3Cl)C[C@H]1NC(=O)CC2 was tested, and the “% Inhibition” value was -13% and the Z score was 1.61.
CCO[C@H]1C[C@@H](O)C12CCN(C(=O)CCc1c(C)noc1C)CC2 was tested, and the “% Inhibition” value was -18% and the Z score was 1.78.
With CCOC(=O)c1cc(NC(=O)N(C)Cc2nccn2CC)ccc1Cl the “% Inhibition” value was 13% and the Z score was -1.83.
With NC(=O)c1ccc(C(=O)N2CC3(CCN3Cc3ccccc3)C2)cc1 the “% Inhibition” value was 13% and the Z score was -1.7.
In the case of O=S(=O)(c1cccc2nonc12)N1CCOCC1, the “% Inhibition” value is reported as -1% and the Z score is reported as 0.11.
COCCCNC(=O)C(C)NC1CCCCC1C (stereo not given) was tested, and the “% Inhibition” value was 0% and the Z score was 0.
With c1cc(-c2nc([C@H]3CCOC3)no2)cc(-n2cnnn2)c1 the “% Inhibition” value was -7% and the Z score was 0.74.
With COC(C)(C)c1nc(CC(=O)NC2CCCC2)no1 the “% Inhibition” value was -8% and the Z score was 1.04.
For Cn1cc(S(=O)(=O)N2CCCCc3ccc(Cl)cc32)cn1, the “% Inhibition” value was -9% and the Z score was 1.55.
COc1ncnc(N)c1CNCC1CCOC1c1ccccc1 (stereo not given) was tested, and the “% Inhibition” value was 9% and the Z score was -1.01.
For Cc1cc(C2(C(=O)Nc3ccc(F)c(N4CCOCC4)c3)CCOCC2)on1, the “% Inhibition” value was -14% and the Z score was 2.79.
CCC(CC)N(C)C(=O)N[C@@H](C)Cc1ccsc1 was tested, and the “% Inhibition” value was -3% and the Z score was 0.25.
In the case of CC1CCCN(C(=O)CCCc2ccc3[nH]c(=O)[nH]c3c2)C1CN (stereo not given), the “% Inhibition” value is reported as 2% and the Z score is reported as -0.34.
CCn1ncc(NC(=O)Cn2ncc3cc(-c4cccc(OC)c4)ccc32)n1 was tested, and the “% Inhibition” value was -17% and the Z score was 2.37.
In the case of O=C(c1cccs1)N1CC[C@H]2[C@H](CCC(=O)N2CCc2c[nH]cn2)C1, the “% Inhibition” value is reported as -20% and the Z score is reported as 3.36.
In the case of O=C1NCCN2CC3(CCN(C(=O)CCC4CCCC4)CC3)C[C@@H]12, the “% Inhibition” value is reported as -3% and the Z score is reported as 0.61.
In the case of Cc1ccc(N2C(=O)N[C@@](c3ccc(F)cc3)(C(F)(F)F)C2=O)nc1, the “% Inhibition” value is reported as -4% and the Z score is reported as 0.62.
For Clc1ccc(OC[C@@H]2CCCN2)cc1, the “% Inhibition” value was -4% and the Z score was 0.41.
With CN(CCO)c1ccc(/C=C/C2CCCCC2)nn1 the “% Inhibition” value was 10% and the Z score was -1.28.
O=C(Cc1ccccc1F)N1CC[C@H](c2nc(C3CCOCC3)no2)C1 was tested, and the “% Inhibition” value was -10% and the Z score was 1.49.
For C[C@H](NC(=O)OC(C)(C)C)c1cnccn1, the “% Inhibition” value was -6% and the Z score was 0.63.
With C[C@H]1CN(C(=O)NCC2CCCCC2)C[C@@H]1CS(N)(=O)=O the “% Inhibition” value was -19% and the Z score was 3.84.
In the case of CCCCNC(=O)c1ccccc1Cl, the “% Inhibition” value is reported as 6% and the Z score is reported as -0.73.
With CC(Cc1ccccc1Cl)NC(=O)C1CCNC1 (stereo not given) the “% Inhibition” value was 3% and the Z score was -0.4.
With CCCOc1ccc(C(O)CCNC(C)C(=O)O)cc1 (stereo not given) the “% Inhibition” value was -5% and the Z score was 0.58.
For COCCN(CC1CCN(Cc2ccccc2F)CC1)C(=O)C1CCCC1, the “% Inhibition” value was -20% and the Z score was 1.85.
CCC(=O)NCc1cccc(-c2cccc3ccnn23)c1 was tested, and the “% Inhibition” value was -4% and the Z score was 0.7.
In the case of Cc1ccc(-c2nccc(Oc3ccc(C(=O)NCc4ccc5c(c4)OCO5)cc3)n2)cc1, the “% Inhibition” value is reported as -13% and the Z score is reported as 1.72.
In the case of CC(C)Cc1nnc(C[C@H]2CCN(C(=O)c3cscn3)C2)o1, the “% Inhibition” value is reported as -9% and the Z score is reported as 1.25.
With Cc1ccc(C(=O)N2CCCn3cc(-c4cccc(C#N)c4)nc32)cc1 the “% Inhibition” value was -6% and the Z score was 0.96.
O=C(NCc1ccco1)N[C@H]1CCCS(=O)(=O)C1 was tested, and the “% Inhibition” value was -2% and the Z score was 0.48.
With COc1nc2c(cc1CNC(=O)c1ccc(N)nc1)C(=O)N(C1CCCC1)C2 the “% Inhibition” value was -16% and the Z score was 2.25.
CC(C)NC(=O)N[C@H]1CCN2C(=O)c3cc(-c4ccc5c(c4)OCO5)ccc3NC(=O)[C@@H]2C1 was tested, and the “% Inhibition” value was 17% and the Z score was -1.96.
For O=C(Nc1cccc(F)c1)c1nnc(COCC(=O)N2CCOCC2)s1, the “% Inhibition” value was -6% and the Z score was 0.9.
With Cc1ccccc1CNC(=O)[C@H]1CCCN(c2nnc3ccccn23)C1 the “% Inhibition” value was -12% and the Z score was 1.27.
In the case of c1ccc(Cc2noc(C3CNC3)n2)cc1, the “% Inhibition” value is reported as -4% and the Z score is reported as 0.78.
In the case of O=C(c1cc(C2CC2)on1)N1CCc2cc(-c3ccncc3)ccc21, the “% Inhibition” value is reported as -4% and the Z score is reported as 0.7.
In the case of Cc1cccc(CN(Cc2ccc3c(c2)OCO3)Cc2nc(C(=O)NCCN(C)C)co2)c1, the “% Inhibition” value is reported as -3% and the Z score is reported as 0.63.
In the case of Cc1cc(-c2cc(O)cc(CC[C@H]3CCCCN3)c2)ccn1, the “% Inhibition” value is reported as 84% and the Z score is reported as -8.44.
For N#Cc1ccc(C(=O)NS(=O)(=O)CC2CCC2)cn1, the “% Inhibition” value was -3% and the Z score was 0.41.
In the case of C[C@]1(C(=O)NCC2CCC(c3nc4ccccc4[nH]3)CC2)CCCNC1 (stereo not given in full), the “% Inhibition” value is reported as 0% and the Z score is reported as -0.02.
Cc1nnc(-c2cc(CCC(C)C)n(-c3cccc(C(=O)N4CC(C)CC(C)C4)c3)n2)o1 (stereo not given) was tested, and the “% Inhibition” value was -16% and the Z score was 1.95.
For Cc1noc(C)c1S(=O)(=O)NC[C@H](O)c1cccn1C, the “% Inhibition” value was -13% and the Z score was 2.26.
For CC(c1nnnn1C)N1CCCC1CC(=O)c1ccc(F)cc1 (stereo not given), the “% Inhibition” value was -3% and the Z score was 0.38.
With O=C(Nc1cccc(F)c1Cl)N1C[C@H](Cc2ccccc2)[C@@H](O)C1 the “% Inhibition” value was -8% and the Z score was 1.03.
For CNC(=O)C[C@H]1CCN(c2nc(C)cc(C)n2)C1, the “% Inhibition” value was -15% and the Z score was 1.45.
Cc1csc(NC(=O)c2sc3nc(-c4ccncc4)ccc3c2N)n1 was tested, and the “% Inhibition” value was -10% and the Z score was 1.42.
With O=C(Cc1cc(F)cc(F)c1)N[C@H]1CCOC[C@@H]1O the “% Inhibition” value was -9% and the Z score was 1.61.
With CCCC[C@H](NCC(=O)NCCOC)c1ccc(Cl)cc1Cl the “% Inhibition” value was -15% and the Z score was 1.32.
With Cc1cc(C)cc(NC(=O)C[C@H]2CN(C(=O)c3ccc[nH]3)CCS2(=O)=O)c1 the “% Inhibition” value was -14% and the Z score was 1.47.
For CCc1nn(C)c(CC)c1CC(=O)N1CC[C@H](C(=O)N(C)C)C1, the “% Inhibition” value was -12% and the Z score was 2.21.
Cc1c(Cl)cccc1S(=O)(=O)N1CCC[C@H](c2nnc(-c3ccsc3)o2)C1 was tested, and the “% Inhibition” value was -12% and the Z score was 1.37.
